# The whole screen tested about 230,000 compounds, of which about 1,500 (0.65%) were called active. Inconclusive results, whose numbers are uncertain, are shown with a selection of clear calls. The call rests on the fitted dose curve; in most records, active means well fitted inhibition curve with a large enough effect; inconclusive means small, poorly fitted or top-dose-only effect; inactive means no such curve, though single readings can be large or run the other way. Potencies of inconclusive entries are doubtful fits and often do not repeat.
# Target: Lethal(3)malignant brain tumor-like protein 1 (Homo sapiens) (UniProt Q9Y468)
# Chain of UniProt Q9Y468 (Q9Y468 whole entry, looked up): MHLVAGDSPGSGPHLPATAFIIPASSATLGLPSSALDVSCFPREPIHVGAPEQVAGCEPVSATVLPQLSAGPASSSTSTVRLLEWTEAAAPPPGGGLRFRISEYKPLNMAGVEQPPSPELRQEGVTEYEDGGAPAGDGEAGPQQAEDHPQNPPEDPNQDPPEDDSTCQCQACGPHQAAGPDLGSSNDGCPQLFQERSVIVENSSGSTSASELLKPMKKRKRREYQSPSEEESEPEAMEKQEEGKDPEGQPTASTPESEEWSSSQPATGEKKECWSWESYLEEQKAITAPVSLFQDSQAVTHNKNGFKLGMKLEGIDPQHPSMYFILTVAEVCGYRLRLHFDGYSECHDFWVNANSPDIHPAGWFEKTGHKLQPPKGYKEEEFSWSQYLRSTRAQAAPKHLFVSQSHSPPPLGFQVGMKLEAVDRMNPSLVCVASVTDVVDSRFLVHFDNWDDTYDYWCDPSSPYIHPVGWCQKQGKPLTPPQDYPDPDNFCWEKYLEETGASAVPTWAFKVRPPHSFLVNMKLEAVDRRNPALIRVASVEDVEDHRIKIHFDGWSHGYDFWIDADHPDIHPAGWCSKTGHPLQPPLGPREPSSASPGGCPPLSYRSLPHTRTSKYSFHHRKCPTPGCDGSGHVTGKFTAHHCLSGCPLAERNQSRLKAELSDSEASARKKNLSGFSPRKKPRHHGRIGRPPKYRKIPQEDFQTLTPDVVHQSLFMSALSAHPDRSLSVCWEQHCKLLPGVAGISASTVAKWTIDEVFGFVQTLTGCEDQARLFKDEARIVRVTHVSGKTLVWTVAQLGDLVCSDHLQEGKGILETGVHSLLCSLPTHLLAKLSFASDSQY
# Assay: qHTS Assay for the Inhibitors of L3MBTL1; further: nearly all actives have a fitted effect of over 60% in size
# Settings: AlphaScreen L3MBTL1–H3K9me1 peptide binding; activity, negative = inhibition: at 57.1 µM (top of the series)
# How it was run: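 First, the protein-peptide complex forms for 30 min at room temperature (L3MBTL1 50 nM, biotinylated H3K9me1 peptide 75 nM). Next, compounds are pin-transferred and incubated 30 min. Finally, AlphaScreen beads are added and read after 30 min.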
# On the % scale 0 is the no-effect control and ±100 the full control effect; potency means the concentration at half of the fitted maximal effect; tags describe the fitted curve by direction and shape.
SMILES,Potency,"activity, negative = inhibition"
CCC(=O)Nc1ccc(-c2csc(C)n2)cc1,inactive,–
Cn1c(SCC(=O)c2ccccc2)nnc1-c1ccncc1,"inconclusive: 39.8 µM [inhibitor, single point]",–
CCOC(=O)c1cnc2c(C)cccc2c1Nc1ccc(N2CCOCC2)cc1,"inconclusive: 39.8 µM [inhibitor, single point]",–
CCN(Cc1ccccc1)c1ccc(N=Nc2nn(C)c(C)c2[N+](=O)[O-])cc1,active: 15.8 µM,–
O=C(CCNC(=O)Cn1cnc2ccccc2c1=O)NCCC1=CCCCC1,–,inactive: -12.8% [at 11.4 µM]
CC(C)Cn1c(N)c(C(=O)COC(=O)C2Cc3ccccc3CN2S(C)(=O)=O)c(=O)n(C)c1=O (stereo not given),"inconclusive: 31.6 µM [inhibitor, partial curve]",–
CN(C)c1cccc(C(=O)NN2C(=O)NC3(CCCCC3)C2=O)c1,"inconclusive: 0.708 µM [inhibitor, single point]",–
COc1cccc(/C=N/Nc2ncc(C(F)(F)F)cc2Cl)c1O,"inconclusive: 39.8 µM [inhibitor, single point]",–
CN(C)CCCNC(=O)c1cc(C(=O)c2ccc(F)cc2)c[nH]1,"inconclusive: 31.6 µM [inhibitor, partial curve, poor fit]",–
Cc1ccccc1-n1cc(-c2ccc(Br)cc2)nc1SCC(N)=O,inactive,–
CN(CC(=O)Nc1ccc(Cl)cc1)C(=O)CCc1nc2sc3c(c2c(=O)[nH]1)CCCC3,"inconclusive: 31.6 µM [inhibitor, single point]",–
CCc1ccc2nc3c(c(C(=O)O)c2c1)CCC3,"inconclusive: 39.8 µM [inhibitor, single point]",–
CN(CC(=O)Nc1c(Cl)cccc1Cl)C(=O)CCc1nc2sc3c(c2c(=O)[nH]1)CCCC3,"inconclusive: 28.2 µM [inhibitor, single point]",–
COC(=O)c1cc(NC(=O)Cc2cccs2)cc(C(=O)OC)c1,"inconclusive: 31.6 µM [inhibitor, single point]",–
CCOC(=O)c1cnc2ccc(C)cc2c1Nc1ccc(N2CCOCC2)cc1,"inconclusive: 39.8 µM [inhibitor, single point]",–
Cc1cccc(/C=C2\CCC(=C3SCCCS3)C2=O)c1,inactive,–
CCOC(=O)NC1(NC2CCCCC2)Oc2ccccc2O1,"inconclusive: 28.2 µM [inhibitor, single point]",–
COc1cccc(CNC(=O)c2cc3c(cc2Cl)N2CCCCCC2=NS3(=O)=O)c1,inactive,–
NN/C(=C\[N+](=O)[O-])Nc1ccccc1,"inconclusive: 20 µM [inhibitor, partial curve]",–
CSc1nc2c(c(=O)[nH]c(=O)n2C)n1Cc1ccccc1Cl,inactive,–
O=C1/C(=C/c2ccco2)SC(=S)N1C1CCS(=O)(=O)C1 (stereo not given),"inconclusive: 17.8 µM [inhibitor, partial curve, poor fit]",–
CCCC(=O)OCC(=O)Nc1cc(Cl)ccc1[N+](=O)[O-],"inconclusive: 22.4 µM [inhibitor, single point]",–
CC(C)CC(C(=O)Nc1oc(-c2ccco2)c(-c2ccco2)c1C#N)N1C(=O)c2ccccc2C1=O (stereo not given),"inconclusive: 25.1 µM [inhibitor, single point]",–
COCc1cc(Sc2ccc(Cl)cc2)nc(C)n1,inactive,–

SMILES,Potency,"activity, negative = inhibition"
O=C(CN1CCCC1)OCCCC1CCCCC1,inactive,–
CCCCNCc1cccn1-c1ccccc1,inactive,–
Cc1ccccc1NC(=S)NC(=O)/C=C/c1ccco1,"inconclusive: 39.8 µM [inhibitor, single point]",–
CCN(CC)S(=O)(=O)c1cc(NC(=O)C(C)N2CCc3ccccc32)ccc1C (stereo not given),"inconclusive: 28.2 µM [inhibitor, partial curve]",–
CC1=C/C(=C/N(C)c2ccccc2)C(=O)S1,inactive,–
O=[N+]([O-])c1cc(CN2CCN(c3ccccc3)CC2)c(O)c2ncccc12,active: 3.98 µM,–
CCOC(=O)Cn1c(CN2CCN(c3cccc(Cl)c3)CC2)nc2c1c(=O)[nH]c(=O)n2C,"inconclusive: 4.47 µM [inhibitor, full curve, poor fit]",–
Cc1ccc(NC(=O)c2cc(NC(=O)c3ccccc3C(=O)O)ccc2N2CCCCC2)cc1,"inconclusive: 39.8 µM [inhibitor, single point]",–
CCNc1ccc(Br)cc(C(=O)/C=C/c2c(Cl)cccc2Cl)c1=O,active: 8.91 µM,–
COc1cc2cc(C(c3nnnn3C(C)(C)C)N3CCc4ccccc43)c(=O)[nH]c2cc1OC (stereo not given),inactive,–
COc1ccc(CC(=O)Nc2cc(NC(=O)Cc3ccc(OC)c(OC)c3)cc(C(=O)O)c2)cc1OC,inactive,–
O=C(CSc1nc2sc3c(c2c(=O)n1-c1ccccc1)CCCC3)NCc1ccco1,"inconclusive: 28.2 µM [inhibitor, partial curve]",–
O=S(=O)(CC(CN1CCCC1)N1CCCC1)c1ccc2ccccc2c1 (stereo not given),"inconclusive: 4.47 µM [inhibitor, full curve, poor fit]",–
O=C(O)c1ccc(N/N=C/C2=C(N3CCOCC3)C(=C\c3ccccc3)/CC2)cc1,"inconclusive: 25.1 µM [inhibitor, single point]",–
COc1ccc(-n2c(Cc3cccn3C)nnc2SCC(=O)Nc2cc(Cl)ccc2OC)cc1,inactive,–
N#CCc1nn2c3c(cnc2c1C#N)C(=O)CCC3,"inconclusive: 0.631 µM [inhibitor, single point]",–
CCOc1ccc(-c2nnc(N)s2)cc1,inactive,–
O=C1c2ccccc2C(=O)N1/N=C/c1ccc(O)c(O)c1,"inconclusive: 28.2 µM [inhibitor, partial curve]",–
CCC(C)Nc1nc(OC(C(F)(F)F)C(F)(F)F)nc(OC(C(F)(F)F)C(F)(F)F)n1 (stereo not given),"inconclusive: 39.8 µM [inhibitor, single point]",–
Cc1cccc([N+](=O)[O-])c1C(=O)O,"inconclusive: 39.8 µM [inhibitor, single point]",–
Cc1ccc(NC(=O)C/C(N)=N/OC(=O)Nc2cccc(Cl)c2)cc1,"inconclusive: 0.794 µM [inhibitor, single point]",–
COc1cccc(Nc2nc(-c3sc(NC(=O)c4ccco4)nc3C)cs2)c1,inactive,–
COc1cccc(/C=N/NC(=O)c2cnccn2)c1O,"inconclusive: 28.2 µM [inhibitor, single point]",–
CCOC(=O)C1=C(C)N(c2ccccc2)C(=O)/C1=C\c1ccco1,"inconclusive: 39.8 µM [inhibitor, single point]",–

SMILES,Potency,"activity, negative = inhibition"
COc1ccc2c(c1)OC[C@H]1[C@H]2N2C(=O)c3cc(OC)ccc3NC(=O)[C@@]2(C)[C@H]1c1ccccc1,"inconclusive: 10 µM [inhibitor, partial curve]",–
Cc1nn(CCC#N)c(N)c1C1(O)C(=O)Nc2c(Cl)cc(Cl)cc21 (stereo not given),"inconclusive: 8.91 µM [inhibitor, partial curve]",–
O=C(CSc1nnc(SCC(=O)c2ccco2)s1)c1ccco1,"inconclusive: 31.6 µM [inhibitor, single point]",–
COc1ccccc1N1C(=O)CC(N2CCN(c3ccc(F)cc3)CC2)C1=O (stereo not given),–,inconclusive: -44.6% [inhibitor]
O=C(NCC1CCCO1)c1cc(-c2ccco2)nc2ccccc12 (stereo not given),"inconclusive: 28.2 µM [inhibitor, single point]",–
CCCOC(=O)c1cccc(NC(=O)c2cccnc2)c1,inactive,–
COc1ccccc1NS(=O)(=O)c1cc(NC(=O)C2CC2)ccc1N1CCOCC1,inactive,–
CCCOc1ccc(C(=O)CCC(=O)Nc2ccc(N3CCN(C)CC3)cc2)cc1,"inconclusive: 35.5 µM [inhibitor, partial curve]",–
COC(=O)c1c(-c2ccccc2Cl)noc1/C=C/N(C)C,"inconclusive: 39.8 µM [inhibitor, single point]",–
Clc1cccc(-c2ccc(-c3nc4ccccn4c3NCc3ccccc3)cc2)c1,"inconclusive: 10 µM [inhibitor, partial curve]",–
O=C(NCc1ccco1)c1cc(-c2ccc(F)cc2)on1,"inconclusive: 0.794 µM [inhibitor, single point]",–
O=C(NCC1CCCCC1)C1(CC2CC(c3ccc(Cl)cc3)=NO2)CCNCC1 (stereo not given),inactive,–
Cc1ccc(N=C2NC(=O)S/C2=C\c2ccco2)cc1,active: 25.1 µM,–
Oc1cccc(NC(=S)N=Nc2c(O)[nH]c3ccccc23)c1,"inconclusive: 20 µM [inhibitor, partial curve]",–
Cc1cc(O)ccc1Nc1nc(-c2cccs2)cs1,inactive,–
O=C(/C=C/c1ccc(Cl)cc1Cl)N1CCN(c2ccccc2[N+](=O)[O-])CC1,"inconclusive: 39.8 µM [inhibitor, partial curve, poor fit]",–
NS(=O)(=O)c1ccc(NC2=CC(=O)C(=O)c3ccccc32)cc1,"inconclusive: 25.1 µM [inhibitor, partial curve]",–
Cc1cc(C)cc(NC(=O)CSc2nnc(CN3CCOCC3)n2C)c1,"inconclusive: 11.2 µM [inhibitor, partial curve]",–
Cc1cc(S(=O)(=O)Nc2nc(CN3CCOCC3)nc3sc4c(c23)CCC4)cc(C)c1C,"inconclusive: 22.4 µM [inhibitor, partial curve]",–
O=Cc1cc(N=Nc2ccccc2Cl)ccc1O,"inconclusive: 3.16 µM [inhibitor, full curve]",–
CCOC(=O)c1[nH]cnc1C(=O)Nc1ccccc1OC,"inconclusive: 3.16 µM [inhibitor, partial curve]",–
CN1CCN(c2nnc(-c3cccs3)c3ccccc23)CC1,"inconclusive: 44.7 µM [inhibitor, partial curve, poor fit]",–
